Results reported in the supplement of paper PMC9446081.
In all, about 39,000 compounds went through this assay and about 220 (0.56%) showed activity. The list shows a part of the results.

test system: Escherichia coli K-12 BW25113; assay: relative growth (OD600 normalised to plate interquartile mean) (fraction); higher = less growth inhibition, active = 0.2 or less; details: 50 µM; LB; incubation time: overnight (16-24 h)
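Note: static incubation at 37 °C against the wild-type strain, values averaged over two biological replicates.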

| Compound | relative growth |
| --- | --- |
| Nc1nc(Nc2ccccc2)nc2c1ncn2[C@@H]1O[C@H](CO)[C@@H](O)[C@H]1O | inactive: 1 |
| C[C@H](CO)N1C[C@H](C)[C@H](CN(C)C(=O)Nc2ccccc2)OCCCC[C@H](C)Oc2ccc(NC(=O)Nc3ccc(C(F)(F)F)cc3)cc2C1=O | inactive: 1.02 |
| C[C@H](CO)N1C[C@H](C)[C@@H](CN(C)Cc2ccc(C(=O)O)cc2)Oc2ccc(NC(=O)Nc3ccc(C(F)(F)F)cc3)cc2CC1=O | inactive: 0.994 |
| NC(=O)c1ccc2nc(-c3ccc(C4(N)CCC4)cc3)c(-c3ccccc3)n2n1 | inactive: 0.989 |
| C[C@@H]1CCCCO[C@H](CN(C)Cc2ccc(C(=O)Nc3ccccc3N)cc2)[C@@H](C)CN([C@@H](C)CO)C(=O)c2cc(NC(=O)Nc3ccc(C(F)(F)F)cc3)ccc2O1 | inactive: 1.03 |
| C[C@@H]1CCCCO[C@H](CN(C)S(=O)(=O)c2ccc(Cl)cc2)[C@@H](C)CN([C@H](C)CO)C(=O)c2cc(NS(=O)(=O)c3ccccc3)ccc2O1 | inactive: 1.01 |
| COc1ccc(S(=O)(=O)N2[C@@H]3CC[C@@H](C3)[C@H]2c2nc3cccc(OCc4ccccc4)c3[nH]2)cc1OC | inactive: 0.976 |
| CC(C)NC(=O)N(C)C[C@@H]1Oc2ccc(NC(=O)Cn3cnnn3)cc2CC(=O)N([C@H](C)CO)C[C@H]1C | inactive: 1.01 |
| C[C@H]1CN([C@@H](C)CO)C(=O)Cc2cc(NC(=O)CCC(F)(F)F)ccc2O[C@@H]1CN(C)C(=O)Nc1ccc(C(F)(F)F)cc1 | inactive: 0.964 |
| Cc1noc(C)c1S(=O)(=O)Nc1ccc2c(c1)C(=O)N([C@H](C)CO)C[C@@H](C)[C@H](CN(C)Cc1ccc(Oc3ccccc3)cc1)O2 | inactive: 0.999 |
| C=CCOc1nc(NCC)nc(N(C)C)n1 | inactive: 0.943 |
| CC(C)(O)CCC(O)C(C)(O)C1CCC2(O)C3=CC(=O)C4CC(O)C(O)CC4(C)C3CCC12C (configuration not stated) | inactive: 1.09 |
| Cc1noc(C)c1NC(=O)N(C)C[C@H]1OCCCC[C@H](C)Oc2ccc(NC(=O)Nc3cccc4ccccc34)cc2C(=O)N([C@H](C)CO)C[C@@H]1C | inactive: 1.01 |
| C[C@H](CO)N1C[C@H](C)[C@H](CN(C)Cc2ccc(Cl)c(Cl)c2)Oc2c(NC(=O)Nc3cccc4ccccc34)cccc2C1=O | inactive: 1.01 |
| C[C@H]1CN([C@@H](C)CO)C(=O)Cc2cc(NC(=O)Cn3cnnn3)ccc2O[C@@H]1CN(C)Cc1ccccc1 | inactive: 1 |
| Cc1noc(C)c1S(=O)(=O)N(C)C[C@H]1Oc2ccc(NC(=O)NC3CCCCC3)cc2CC(=O)N([C@@H](C)CO)C[C@H]1C | inactive: 1.02 |
| CO[C@H]1CN(C)C(=O)c2cc(NC(=O)Nc3ccc(Cl)cc3)ccc2OC[C@@H](C)N(C(=O)Nc2c(C)noc2C)C[C@@H]1C | inactive: 0.989 |
| COc1cccc(-c2ccc3c(c2)O[C@@H](CN(C)C(=O)C2CCC2)[C@H](C)CN([C@@H](C)CO)S3(=O)=O)c1 | inactive: 1.03 |
| O=CN1CCN(C(=O)c2ccccc2)CC1 | inactive: 0.978 |
| CC(C)CCCC(C)C1CCC2C3CCC4CC(=O)CCC4(C)C3CCC12C (configuration not stated) | inactive: 0.894 |
| OCC1CCNCC1 | inactive: 0.997 |

| Compound | relative growth |
| --- | --- |
| Cc1noc(C)c1NC(=O)N(C)C[C@H]1OCCCC[C@@H](C)Oc2ccc(NC(=O)CCC(F)(F)F)cc2C(=O)N([C@@H](C)CO)C[C@H]1C | inactive: 1 |
| CN(CC(=O)O)S(=O)(=O)c1ccc(F)cc1 | inactive: 0.983 |
| Cn1c(=O)c2c(ncn2C[C@@H](O)CNc2ccc(Br)cc2)n(C)c1=O | inactive: 0.994 |
| O=C(C[C@@H]1CC[C@H]2[C@@H](COC[C@H](O)CN2S(=O)(=O)c2cccc(F)c2)O1)NCCCN1CCOCC1 | inactive: 0.982 |
| CCCN(C)C[C@@H]1OCCCC[C@@H](C)Oc2ccc(NC(=O)NC3CCCCC3)cc2C(=O)N([C@H](C)CO)C[C@@H]1C | inactive: 1.03 |
| CC(C)CC(=O)C(=O)O | inactive: 1.01 |
| COc1ccc(CN(C)C[C@@H]2Oc3ccc(NC(=O)C4CC4)cc3CC(=O)N([C@@H](C)CO)C[C@H]2C)cc1 | inactive: 1.02 |
| C[C@@H]1CN([C@@H](C)CO)C(=O)c2cccc(NC(=O)C3CCCCC3)c2O[C@H]1CN(C)C(=O)Nc1cccc2ccccc12 | inactive: 0.976 |
| O=S1(=O)C[C@H](O)[C@@H](N2CCN(CCO)CC2)C1 | inactive: 1.01 |
| COc1ccc(NC(=O)Nc2ccc3c(c2)C(=O)N([C@@H](C)CO)C[C@H](C)[C@@H](CN(C)S(=O)(=O)c2ccc(C)cc2)OCCCC[C@H](C)O3)cc1 | inactive: 1.04 |
| Cc1noc(C)c1S(=O)(=O)N(C)C[C@H]1Oc2ccc(NS(=O)(=O)c3ccc(Cl)cc3)cc2CC(=O)N([C@@H](C)CO)C[C@H]1C | inactive: 1 |
| C[C@H](CO)N1C[C@H](C)[C@@H](CN(C)Cc2ccncc2)OCCCC[C@H](C)Oc2ccc(NC(=O)Nc3ccc4c(c3)OCO4)cc2C1=O | inactive: 0.976 |
| Cc1ccc(S(=O)(=O)N[C@@H]2CC[C@@H](CC(=O)N3CCC(Cc4ccccc4)CC3)O[C@H]2CO)cc1 | inactive: 0.989 |
| C[C@@H]1CN([C@@H](C)CO)C(=O)c2cc(NC(=O)Nc3ccc(C(F)(F)F)cc3)ccc2O[C@@H](C)CCCCO[C@@H]1CN(C)S(=O)(=O)c1cn(C)cn1 | inactive: 0.978 |
| C[C@@H]1CN([C@@H](C)CO)C(=O)c2cc(NC(=O)Cn3cnnn3)ccc2O[C@@H]1CN(C)C(=O)Nc1cccc2ccccc12 | inactive: 1.02 |
| CO[C@H]1CN(C)C(=O)c2cc(NS(=O)(=O)CC(F)(F)F)ccc2OC[C@H](C)N(Cc2nccs2)C[C@@H]1C | inactive: 0.999 |
| COc1ccc(S(=O)(=O)N(C)C[C@@H]2OCCCC[C@@H](C)Oc3ccc(NC(=O)Nc4ccccc4)cc3C(=O)N([C@H](C)CO)C[C@@H]2C)cc1 | inactive: 1.02 |
| C[C@@H]1CN([C@H](C)CO)C(=O)c2cc(NC(=O)Nc3cccc4ccccc34)ccc2O[C@@H](C)CCCCO[C@@H]1CN(C)S(=O)(=O)c1ccc(F)cc1 | inactive: 1 |
| O=C(C[C@@H]1C[C@@H]2c3cc(NS(=O)(=O)c4ccc(F)cc4)ccc3O[C@@H]2[C@H](CO)O1)N1CCOCC1 | inactive: 1 |
| C[C@@H]1CCCCO[C@@H](CN(C)S(=O)(=O)c2cccs2)[C@@H](C)CN([C@@H](C)CO)C(=O)c2cc(NC(=O)NC3CCCCC3)ccc2O1 | inactive: 1.02 |
| OCCC[C@@H](O)c1ccc(OCCO)cc1 | inactive: 1 |

| Compound | relative growth |
| --- | --- |
| CCCC#Cc1cnc2c(c1)C(=O)N([C@@H](C)CO)C[C@H](C)[C@H](CN(C)S(=O)(=O)c1cccc(OC)c1)O2 | inactive: 1.01 |
| C[C@H]1CCCCO[C@H](CN(C)Cc2ccc(C(=O)O)cc2)[C@@H](C)CN([C@@H](C)CO)C(=O)c2cc(NC(=O)Cc3ccccc3)ccc2O1 | inactive: 0.982 |
| Cc1noc(C)c1S(=O)(=O)Nc1ccc2c(c1)C(=O)N([C@H](C)CO)C[C@@H](C)[C@@H](CN(C)C(=O)Nc1ccc3c(c1)OCO3)O2 | inactive: 0.991 |
| Cn1nc(CN2CCCC2=O)c2c1CNC2 | inactive: 1.01 |
| C[C@@H]1CN([C@H](C)CO)C(=O)c2cccc(NC(=O)c3ccc(-c4nccs4)cc3)c2O[C@H]1CN(C)C(=O)Nc1ccc2c(c1)OCO2 | inactive: 0.995 |
| C[C@@H]1CCCCO[C@@H](CN(C)S(=O)(=O)c2cccs2)[C@@H](C)CN([C@@H](C)CO)C(=O)c2cc(NS(=O)(=O)c3cn(C)cn3)ccc2O1 | inactive: 1.01 |
| O=C(C[C@H]1CC[C@@H]2[C@H](COC[C@@H](O)CN2C(=O)Nc2ccc(Cl)cc2)O1)NC1Cc2ccccc2C1 | inactive: 0.902 |
| CC(=O)OC1CC23CC24CCC(OC2OCC(O)C(O)C2O)C(C)(C)C4CCC3C2(C)CC3OC4(CC(C)C3C12C)OC(O)C1(C)OC41 (configuration not stated) | inactive: 0.869 |
| COCC(=O)Nc1ccc2c(c1)C(=O)N(C)[C@H]1CC[C@@H](CC(=O)N3CCc4ccccc4C3)O[C@H]1CO2 | inactive: 1.02 |
| C[C@@H]1CN([C@@H](C)CO)C(=O)c2cc(NC(=O)Cn3cnnn3)ccc2O[C@H]1CN(C)S(=O)(=O)c1cccs1 | inactive: 0.977 |
| CC(C)N(C[C@H]1O[C@@H](n2cnc3c(N)ncnc32)[C@H](O)[C@@H]1O)[C@H]1C[C@@H](CCc2nc3ccc(C(C)(C)C)cc3[nH]2)C1 | inactive: 0.982 |
| NC(=O)c1cc(N)ccc1F | inactive: 0.985 |
| C[C@@H](N)c1cnn(-c2ccc(F)cc2)c1 | inactive: 0.947 |
| Cc1noc(C)c1NC(=O)Nc1ccc2c(c1)C(=O)N([C@@H](C)CO)C[C@@H](C)[C@@H](CN(C)S(=O)(=O)c1ccc(F)cc1)OCCCC[C@H](C)O2 | inactive: 0.985 |
| O=c1nc(NCc2ccco2)cc[nH]1 | inactive: 1.05 |
| Cc1ccnc(NC(=O)c2cc3sc4ccccc4c3s2)c1 | inactive: 0.927 |
| C[C@H]1CN([C@@H](C)CO)C(=O)c2cc(NS(=O)(=O)c3cn(C)cn3)ccc2O[C@H]1CN(C)C(=O)NC1CCCCC1 | inactive: 0.987 |
| Cc1ccc(S(=O)(=O)Nc2ccc3c(c2)C(=O)N([C@H](C)CO)C[C@H](C)[C@@H](CN(C)Cc2ccc(-c4ccccc4)cc2)O3)cc1 | inactive: 0.987 |
| C[C@H]1CN([C@@H](C)CO)C(=O)Cc2cc(NS(=O)(=O)c3cccs3)ccc2O[C@H]1CN(C)Cc1ccncc1 | inactive: 1 |
| C[C@@H]1CN([C@@H](C)CO)C(=O)c2cc(NC(=O)CCCN(C)C)ccc2O[C@H]1CN(C)Cc1ccncc1 | inactive: 1 |
